# This is one part of the list. These are enrichments in a pooled selection; single values are uncertain.
# System: SARS-CoV-2 3CLpro (nsp5)
# Test: substrate phage enrichment score (protease-eluted vs HEPES control, +1 offset) (ratio); higher = better cleaved substrate
# Settings: selection round: 4; protease elution time: 15 min
# Experimental: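 Random heptapeptide substrate phage display (M13 pIII fusion, heptapeptide between an N-terminal biotinylated AviTag GLNDIFEAQKIEWHE and pIII; phages immobilised on streptavidin) eluted by cleavage with 50 nM protease in 20 mM HEPES at 37 °C. Selected phages were NGS sequenced, and the enrichment score is (reads in protease sample + 1)/(reads in HEPES blank-selection control + 1).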
row,Substance,substrate phage enrichment score
1,AVEEKST,> 28
2,TDTDGVR,1.5
3,SEITTLQ,218
4,AHIRTTK,0.08
5,GTAAHHH,0.99
6,EKCTKLQ,> 95
7,SPAQSPG,0.476
8,SFESLNA,0.917
9,SHTRVCP,6.75
10,NPAAHHH,0.926
11,RYLPGLQ,3.67
12,LEQPMPS,13.5
13,WYSELKV,4.5
14,SYHNPST,0.294
15,RELYFQG,0.438
16,PCASGMP,> 50
17,EHTAGTK,3.1
18,CRFAGQN,4.5
19,RNTTATR,> 22
20,EIYLHLR,8
21,VRYRLEN,0.571
22,GIAPPVR,4.4
23,RTESHAP,1.6
24,DAPNVRQ,2.2
25,RSSPSPR,> 23

row,Substance,substrate phage enrichment score
1,SSACDRK,4
2,SQKMTPP,6
3,VSHCENN,6.86
4,TQSPTYV,> 35
5,YHHHHGA,0.674
6,KRGNCSQ,1.2
7,SIRPDAG,> 31
8,SKTSCRQ,> 31
9,AVLGRAQ,9.67
10,TNASVIQ,21
11,LSNDRGQ,> 41
12,WPRPALQ,11
13,HSAAAHH,0.517
14,PQPECGT,1.13
15,RTSPTYM,5.2
16,SGETHLM,> 30
17,IQMQGNL,2.43
18,GETKLQS,> 37
19,RCPTPVS,> 37
20,QLSPNKA,6.5
21,RPTCRIQ,2.91
22,QRHSNPQ,1.7
23,PTCQGGS,> 32
24,VLRHGQE,7.36
25,HPIGTRT,5

row,Substance,substrate phage enrichment score
1,TPTALQS,> 21
2,SYRERLR,6.33
3,ASHQEIT,0.35
4,STVRSKE,> 22
5,NDHDELR,1.88
6,YESGVIE,> 34
7,YKHEPMK,> 34
8,VQDTGQP,1.4
9,PRNPDSK,0.625
10,VSVLQSS,45.5
11,LPKNMTC,0.923
12,QSFLYER,4.86
13,SGNARVP,1.54
14,SQVKLGD,2.25
15,KGTLTPP,> 24
16,RCPVAVG,0.392
17,GTAESNP,1.71
18,SNFTSGQ,1.56
19,NAAAHHH,0.714
20,CLRGPVL,11
21,SDFTLPR,0.222
22,PTLPILQ,> 31
23,NTLTNLQ,> 83
24,SEYPARF,1.11
25,WPPLLQA,> 21

row,Substance,substrate phage enrichment score
1,AVREHRQ,0.716
2,PLSHPLH,> 38
3,TTHEPTV,2.67
4,ARPMGGR,0.912
5,NASSLQS,> 87
6,DLNERDG,7.17
7,SEETEYP,0.0769
8,SRISPTK,0.714
9,VPSTRLQ,> 86
10,RKCSHIQ,6.33
11,HESTSGF,1.88
12,ANTTHDR,1.47
13,LSKRDRC,2.17
14,ANIPPSK,> 80
15,TDVPRYR,8.33
16,RCLPDTV,3.8
17,SKRGANG,4.38
18,VYRLPHR,4.42
19,SAASSRQ,> 66
20,KRTRTQC,0.917
21,DDVNWPD,1.88
22,NHYGDGD,3.5
23,VATTRMQ,> 31
24,RHEPQTR,1.82
25,ELRLTTR,2.52

row,Substance,substrate phage enrichment score
1,RNSSRTA,29
2,KCTAGEK,4
3,EVGLPQA,7.67
4,WPCALQC,> 330
5,PLSPHNQ,> 102
6,SESAQWG,0.9
7,GTPMTHF,1.17
8,PPKVRLQ,42.9
9,GAAVCLQ,30
10,WTDRVEC,6.12
11,LTHAHGK,0.13
12,YCSKSRN,5.25
13,EAAAHHH,1.12
14,SKYTNLQ,> 31
15,MKHACQT,> 21
16,SDLRMKP,> 27
17,SAAPHQH,1.54
18,SCNVTLQ,0.7
19,ARNGSPY,2.43
20,DTRCVNG,0.143
21,VWGTVPG,> 22
22,TRPKGEK,> 48
23,RVCSLVL,> 37
24,APYGPRG,4.4
25,MTSYGKE,3.4

row,Substance,substrate phage enrichment score
1,LTTGDDS,0.765
2,DPLSDPR,10
3,THPEWPW,1.31
4,SLSGNPN,> 29
5,SGQVTLQ,100
6,VSERTPH,> 143
7,VCAAAHH,0.286
8,QHHRGRC,2.67
9,PTCAFGL,2.68
10,LDNSQVI,0.222
11,WNQSDSC,15
12,KSDASRE,1.08
13,ISVTPQQ,> 22
14,SGCSWAQ,3
15,LKLPLLQ,> 23
16,DASGRAP,> 70
17,PMSHGLM,1.36
18,STTVQMQ,> 58
19,RLRGPGT,1.2
20,SRLQSYQ,> 136
21,HAKHMTE,4.75
22,QEALTCV,0.722
23,SRSQRTR,> 55
24,DAALSTG,1.78
25,KAMRGHS,> 21

row,Substance,substrate phage enrichment score
1,ETSPKQT,2.89
2,VRREEQL,1.88
3,SGHTSRD,3.4
4,TSMNGQR,1.64
5,RENLNPT,> 67
6,QKNPRLQ,> 22
7,SRPAELQ,28.3
8,HDSWRPI,3.6
9,EVEPCLQ,> 30
10,SAAAHRH,0.621
11,FGNALLQ,> 40
12,PTERCKS,3.29
13,FSQAKES,> 22
14,MQDPSVA,1.75
15,SHVNEDG,0.682
16,HAAAHHH,0.742
17,GLYFQGG,3.05
18,TTMQSST,6.33
19,LPRCSLC,6.75
20,DHSSHKA,6.89
21,KRPLNPA,> 42
22,TTPMSNR,1.5
23,VTKSEAQ,> 104
24,DQQRANY,1.33
25,AAAHHHN,1.59

row,Substance,substrate phage enrichment score
1,TEYKVNC,29
2,TCVTLQS,> 51
3,VYFQGGS,1.57
4,CYCPNWE,0.571
5,NTKRRPP,> 43
6,CVNGTVR,> 21
7,CDRESPG,2.75
8,PCTLRAR,> 21
9,STYPVTG,> 42
10,CSCTHTK,0.939
11,ASHKSSL,25
12,GTTAAHH,2.88
13,SKTSTLQ,> 24
14,RCLLPRN,> 53
15,PGVASLQ,> 31
16,LDAQKKT,1.31
17,INATDRR,0.0833
18,PEQIESY,> 42
19,TNQRPEW,0.0435
20,DFQGGSA,0.84
21,CERRQGD,1.88
22,NSSRPHR,0.1
23,RSSPSME,1.18
24,INHGNKQ,> 22
25,LHRVSNP,0.7

row,Substance,substrate phage enrichment score
1,EPCVLHG,10.5
2,LNNNPGR,0.341
3,ITPQENA,> 39
4,RQNKLKP,> 21
5,IHQPNWR,3.44
6,RFCESVV,3.36
7,SAAAYHH,1.23
8,EYLMGPS,0.963
9,QPAGSAA,> 56
10,VPRSRIG,41
11,RQPSCLH,> 21
12,LPTNLHR,> 28
13,CFRSGYG,> 21
14,VITRPQG,1
15,KPYFQGG,0.6
16,SADRECE,3.83
17,SPHQEEQ,2.71
18,HGSTHAV,1.67
19,SQKNRGC,> 38
20,LRCIVLR,> 25
21,EAVSSMD,> 21
22,CVLLQSH,> 180
23,HNPPLTN,0.211
24,RKGPMLQ,> 38
25,SGPGVMA,0.611

row,Substance,substrate phage enrichment score
1,WRPIGKQ,41.7
2,QELLLHS,> 27
3,TQAAHHH,2.32
4,QHFQGGS,0.958
5,LRMHGLT,2.57
6,EPSRNRT,> 155
7,GGMTPVC,7.4
8,HGQHSNR,0.667
9,TEQEFFQ,2.07
10,ELSEHRQ,> 82
11,SRRPVTS,> 30
12,CLTFGRN,> 32
13,SPKGYAW,> 29
14,SSHSRLQ,> 84
15,ELRQGYN,4.41
16,GRSTRLQ,30
17,KRTSPAR,2.57
18,EKSRDQC,0.132
19,ISAAAHH,0.532
20,PCSYANG,> 21
21,DLKSMPQ,23
22,RCQGRIR,11
23,AAVSILH,> 320
24,TKNTVLQ,> 82
25,MTGAARD,> 24

row,Substance,substrate phage enrichment score
1,VARPSAK,2.57
2,STRCMLQ,> 45
3,GVRHWTT,1.53
4,LKSAQLQ,> 35
5,PLNSESR,2.47
6,PAGCAST,0.758
7,KAAARLQ,> 101
8,PRMGCNL,0.467
9,QGEIDSH,> 57
10,EGLIEFH,> 34
11,YRESSLQ,> 35
12,KRTCIAD,> 35
13,LPRESGG,18.7
14,APGPEAP,> 21
15,PASRLPV,> 80
16,QKKRTPV,> 58
17,LWPHIII,0.833
18,PGVKLGR,9.4
19,RTRLQGQ,> 75
20,RQNLNRN,> 22
21,ARAPAPP,2.1
22,ALSLCPS,> 79
23,RWREPSR,22
24,HTSGQRF,0.867
25,GTHHQMT,10

row,Substance,substrate phage enrichment score
1,TTHEDDK,7.25
2,SQSLKKQ,> 21
3,PGTSWQD,1.38
4,QVSELTG,> 85
5,ASCAILQ,> 26
6,VWGEPIT,> 27
7,GTEPHVR,3.43
8,PMHPVQH,0.0714
9,RNTSRTT,1.08
10,VLNVQTG,1.46
11,FAEPRQG,> 33
12,RWSGTEI,0.833
13,THGHATA,2.38
14,VSRDNHT,> 30
15,GGNAQSH,3.1
16,KRGSAAA,9.31
17,AELRCTG,1.88
18,NRLKDCS,0.636
19,PREREKP,1.17
20,IRNTKGC,1.56
21,LNDVYVR,4.4
22,NAAAMTK,2
23,TADTGTR,6.8
24,IATPMPD,0.432
25,IQIPPTG,5.71

row,Substance,substrate phage enrichment score
1,TPNANNQ,0.257
2,HPGETST,0.6
3,VTAAHHH,0.875
4,RQPERTE,2.4
5,SRTEYRQ,> 46
6,SAAAQNQ,1.56
7,NRECRCN,> 24
8,FQGGSAA,1.36
9,RQSFEQR,2.33
10,SHKKEKS,0.472
11,AKAAHHH,1.23
12,RPCQIAV,4.2
13,TEHNGTR,> 57
14,SHVCRHR,> 22
15,PATILMS,92.5
16,TCLQSCV,66
17,SGSRSMR,2.14
18,SNSNEAA,0.722
19,CAAAPHH,0.794
20,RGGSAAA,1.32
21,VGRPCST,5.38
22,KDAQCIP,> 37
23,PSNDCGT,0.737
24,FNEGHAP,> 25
25,CPLIWQR,> 31

row,Substance,substrate phage enrichment score
1,RACRLLR,2.37
2,RTQESSQ,> 34
3,PRSVHLQ,> 282
4,YQNSASK,> 32
5,LTADTAV,4.29
6,VQPILDR,3.88
7,VRNTSKV,1.26
8,MTSNKVP,> 21
9,RATLLQS,> 23
10,LNTQDSH,2.82
11,VGRYNPR,1.09
12,LLRPTSG,> 28
13,SYRYTPR,0.389
14,QSSTMPR,3.62
15,GHVVPAL,> 36
16,CNACCAE,4.36
17,WPTPYYR,> 28
18,LSPPKCA,> 37
19,RQPVSAS,1.58
20,VIQTPEC,1.2
21,TGVVPRA,2.09
22,VKRPDCN,0.933
23,YTESKLQ,> 44
24,GRIILQC,> 39
25,PDEGTDL,> 30

row,Substance,substrate phage enrichment score
1,EAKTPLI,> 22
2,RCNGPCA,> 41
3,QDARHCR,> 22
4,PEHSMLQ,> 220
5,SLRTQVS,> 30
6,VTNPSFQ,4.21
7,STSKWSQ,> 29
8,LCFQGGS,0.636
9,QPANALK,2.75
10,CHVKHRS,> 21
11,GLRVGFR,3.29
12,IRAAHHH,0.682
13,KYPTGNP,0.519
14,SGHTRCT,7
15,NTRWSNP,5.4
16,TDCPPGK,0.907
17,PHFQGGS,0.64

# Reference: the supplement of paper PMC10185492
